Source: publication doi:10.1101/2025.11.15.688632, “Disordered activation domains enhance DNA target search rate of a bZIP transcription factor” (bioRxiv, 2025)

Biological target: the molecule itself
Assay: stopped-flow fluorescence (dilution-driven relaxation kinetics); dimer to monomers; 10.8-200 nM labelled CREB (AlexaFluor 488 or 594 on C323) diluted 11-fold into biophysical buffer (10 mM HEPES pH 7.4, 150 mM NaCl, 10 mM MgCl2, 0.05% Tween-20), 25 °C; paired traces fitted to a two-state model

B1: AlexaFluor 488-labelled pseudo wild-type full-length CREB (natural protein)
chain: not shown
modifications: AlexaFluor 488 maleimide on C323
notes: N-terminal scar left by ULP-1 cleavage of the His6-SUMO tag; C286 and C296 mutated to serine, C323 reintroduced for labelling; numbers count on: isoform B ([…]); also called fluorescently-labelled pseudo wild-type CREB; source: E. coli Rosetta2 (DE3), purified (heat treatment, HisTrap, heparin, anion exchange), labelled by maleimide chemistry; not shown: His6, N-terminal, cleaved; SUMO, …
Kd: 26 nM | koff: 0.1 s⁻¹ | kon: 8e+06 ± 2e+06 M⁻¹ s⁻¹
